How the values were obtained:
[1] = molecular target: T1, HBoV1 NS[…] with Flag and His tags (human bocavirus 1 (HBoV1)); assay: BLI
[2] = molecular target: T1, HBoV1 NS[…] with Flag and His tags; assay: BLI; remark: listed apart in the source

| Binder | koff [1] [s⁻¹] | Kd [2] [nM] |
| --- | --- | --- |
| Ku70 domain C (C-terminal domain) with Strep-tag II (domain or fragment) not shown | 0.000667 | – |
| Ku70 domain B (β-barrel domain) with Strep-tag II (domain or fragment) not shown | 0.000808 | 230 |

Reference: PMC8865542 (2021)
